{"source": "the supplement of paper PMC10126150", "note": "Sequences with one replicate were seen in a single cluster, so their values are uncertain.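 Note: ATP exposure 15 min at 22 °C before imaging.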", "data": [{"test_system": "ATP", "assay": "switch fluorescence ratio, 500 uM ATP over buffer (Cy3 cluster intensity, sum of 5 cycles each) (fold (ratio)); higher = stronger signal-on switching upon ATP binding; sequences stand for … in TCGTCGGCAGCGTCAGATGTGTATAAGAGACAGTTTTTTTTTTTTTTTTTTTTTTTTT…TC", "details": "aptamer strand: ATP DNA aptamer (quencher-CACCTGGGGGAGTATTGCGGAGGAAGG + anchor), 100 nM annealed; ATP concentration: 500 uM; one replicate", "outline": "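Cy3-labelled switching-strand clusters on a modified Illumina MiSeq flow-cell were annealed to 100 nM quencher-labelled ATP aptamer and imaged first in selection buffer, then after 15 min with 500 uM ATP at 22 °C. NaOH stripping and re-annealing separated each of five buffer/ATP cycles, and clusters outside 100-1000 RFU were excluded. The fluorescence ratio sums target-cycle Cy3 intensity over buffer-cycle Cy3 intensity per cluster and averages it per switch-domain sequence.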", "values": [{"sequence": "TAGTTGGTT", "switch fluorescence ratio": 1.03}, {"sequence": "TATAAAACCA", "switch fluorescence ratio": 0.999}, {"sequence": "TATAAAAGCC", "switch fluorescence ratio": 1.02}, {"sequence": "TATAAAGCTT", "switch fluorescence ratio": 1.06}, {"sequence": "TATAAATCCG", "switch fluorescence ratio": 1.03}, {"sequence": "TATAAATCTT", "switch fluorescence ratio": 1.02}, {"sequence": "TATAACAAAA", "switch fluorescence ratio": 1.04}, {"sequence": "TATAACATAG", "switch fluorescence ratio": 1.02}, {"sequence": "TATAACTCGA", "switch fluorescence ratio": 0.991}, {"sequence": "TATAAGTGCG", "switch fluorescence ratio": 1}, {"sequence": "TATAATAGAT", "switch fluorescence ratio": 0.986}, {"sequence": "TATAATATCC", "switch fluorescence ratio": 1.02}, {"sequence": "TATAATTCCT", "switch fluorescence ratio": 1.03}, {"sequence": "TATACAGGGA", "switch fluorescence ratio": 1.02}, {"sequence": "TATACCAGAC", "switch fluorescence ratio": 1.25}, {"sequence": "TATACCGGCT", "switch fluorescence ratio": 1.08}, {"sequence": "TATACGTAAG", "switch fluorescence ratio": 1.03}, {"sequence": "TATACTGGGT", "switch fluorescence ratio": 1.05}, {"sequence": "TATAGAATTC", "switch fluorescence ratio": 1.04}, {"sequence": "TATAGACCAG", "switch fluorescence ratio": 1.03}, {"sequence": "TATAGCCTTG", "switch fluorescence ratio": 0.969}, {"sequence": "TATAGCGGAG", "switch fluorescence ratio": 1.06}, {"sequence": "TATAGCGTA", "switch fluorescence ratio": 1.05}, {"sequence": "TATAGCTGCG", "switch fluorescence ratio": 1.01}, {"sequence": "TATAGGATCC", "switch fluorescence ratio": 0.986}, {"sequence": "TATAGGGCCC", "switch fluorescence ratio": 1.02}, {"sequence": "TATATAGACC", "switch fluorescence ratio": 1.14}, {"sequence": "TATATAGCAG", "switch fluorescence ratio": 1.01}, {"sequence": "TATATAGCCC", "switch fluorescence ratio": 1.01}, {"sequence": "TATATCAAGC", "switch fluorescence ratio": 0.998}, {"sequence": "TATATCCAAT", "switch fluorescence ratio": 0.984}, {"sequence": "TATATCCGT", "switch fluorescence ratio": 1.02}, {"sequence": "TATATCGACT", "switch fluorescence ratio": 0.984}, {"sequence": "TATATCGATT", "switch fluorescence ratio": 1.01}, {"sequence": "TATATGGGCG", "switch fluorescence ratio": 1.09}, {"sequence": "TATATTAGCA", "switch fluorescence ratio": 1.02}, {"sequence": "TATATTAGTC", "switch fluorescence ratio": 1.04}, {"sequence": "TATATTAGTT", "switch fluorescence ratio": 1.01}, {"sequence": "TATATTCAGC", "switch fluorescence ratio": 1.01}, {"sequence": "TATATTCTCT", "switch fluorescence ratio": 0.997}, {"sequence": "TATATTTAG", "switch fluorescence ratio": 0.985}, {"sequence": "TATCAAAATG", "switch fluorescence ratio": 1.01}, {"sequence": "TATCAAATAC", "switch fluorescence ratio": 1.22}, {"sequence": "TATCAACTTT", "switch fluorescence ratio": 0.997}, {"sequence": "TATCACCCTT", "switch fluorescence ratio": 1.02}, {"sequence": "TATCAGAA", "switch fluorescence ratio": 0.985}, {"sequence": "TATCAGAAGA", "switch fluorescence ratio": 0.984}, {"sequence": "TATCATCCGT", "switch fluorescence ratio": 1.11}, {"sequence": "TATCCAACAA", "switch fluorescence ratio": 1.05}, {"sequence": "TATCCATACC", "switch fluorescence ratio": 1.11}, {"sequence": "TATCCATTCC", "switch fluorescence ratio": 1.39}, {"sequence": "TATCCCAGTA", "switch fluorescence ratio": 1}, {"sequence": "TATCCCTATA", "switch fluorescence ratio": 1.96}, {"sequence": "TATCCGTATT", "switch fluorescence ratio": 1.08}, {"sequence": "TATCCTTCCT", "switch fluorescence ratio": 3.01}, {"sequence": "TATCGACATC", "switch fluorescence ratio": 1.09}, {"sequence": "TATCGAGCCT", "switch fluorescence ratio": 1}, {"sequence": "TATCGCCAGT", "switch fluorescence ratio": 1.02}, {"sequence": "TATCGCCTA", "switch fluorescence ratio": 1}, {"sequence": "TATCGCTGAT", "switch fluorescence ratio": 1.01}, {"sequence": "TATCGGAGC", "switch fluorescence ratio": 0.959}, {"sequence": "TATCGTACTA", "switch fluorescence ratio": 1.15}, {"sequence": "TATCGTGAGG", "switch fluorescence ratio": 0.988}, {"sequence": "TATCGTGATT", "switch fluorescence ratio": 1.04}, {"sequence": "TATCGTGTAG", "switch fluorescence ratio": 1.01}, {"sequence": "TATCGTGTGT", "switch fluorescence ratio": 0.993}, {"sequence": "TATCTAAGCG", "switch fluorescence ratio": 1.02}, {"sequence": "TATCTATAAA", "switch fluorescence ratio": 1.03}, {"sequence": "TATCTATTTA", "switch fluorescence ratio": 1.04}, {"sequence": "TATCTCTCAG", "switch fluorescence ratio": 0.989}, {"sequence": "TATCTCTTTC", "switch fluorescence ratio": 0.981}, {"sequence": "TATCTGCATC", "switch fluorescence ratio": 1.47}, {"sequence": "TATCTGCGTG", "switch fluorescence ratio": 0.973}, {"sequence": "TATCTGTTAA", "switch fluorescence ratio": 0.962}, {"sequence": "TATCTGTTCC", "switch fluorescence ratio": 1.07}, {"sequence": "TATCTTTTAC", "switch fluorescence ratio": 1.05}, {"sequence": "TATGAAAGTT", "switch fluorescence ratio": 0.962}, {"sequence": "TATGAAGGAC", "switch fluorescence ratio": 1.01}, {"sequence": "TATGAATCA", "switch fluorescence ratio": 0.999}, {"sequence": "TATGAATCTA", "switch fluorescence ratio": 0.982}, {"sequence": "TATGACTGCC", "switch fluorescence ratio": 1.22}, {"sequence": "TATGACTTGT", "switch fluorescence ratio": 1.02}, {"sequence": "TATGAGAAAC", "switch fluorescence ratio": 0.985}, {"sequence": "TATGAGAGAT", "switch fluorescence ratio": 1.01}, {"sequence": "TATGAGGG", "switch fluorescence ratio": 1.02}, {"sequence": "TATGATATGA", "switch fluorescence ratio": 1.02}, {"sequence": "TATGATCCTC", "switch fluorescence ratio": 0.997}, {"sequence": "TATGATGTG", "switch fluorescence ratio": 0.971}, {"sequence": "TATGCAGGCC", "switch fluorescence ratio": 0.964}, {"sequence": "TATGCAGTCC", "switch fluorescence ratio": 1.06}, {"sequence": "TATGCATCTT", "switch fluorescence ratio": 1.01}, {"sequence": "TATGCATGGT", "switch fluorescence ratio": 0.961}, {"sequence": "TATGCATTTT", "switch fluorescence ratio": 0.998}, {"sequence": "TATGCCCGCA", "switch fluorescence ratio": 1.05}, {"sequence": "TATGCCCTGT", "switch fluorescence ratio": 1.03}, {"sequence": "TATGCCTACC", "switch fluorescence ratio": 1.14}, {"sequence": "TATGCGCAGG", "switch fluorescence ratio": 1.06}, {"sequence": "TATGCGCCCT", "switch fluorescence ratio": 0.985}, {"sequence": "TATGCGCGT", "switch fluorescence ratio": 1.03}, {"sequence": "TATGCGTCTC", "switch fluorescence ratio": 0.996}, {"sequence": "TATGCTTACG", "switch fluorescence ratio": 0.965}, {"sequence": "TATGGAAACT", "switch fluorescence ratio": 1.1}, {"sequence": "TATGGCAGGG", "switch fluorescence ratio": 0.976}, {"sequence": "TATGGCCGGC", "switch fluorescence ratio": 0.928}, {"sequence": "TATGGGGAAA", "switch fluorescence ratio": 1.02}, {"sequence": "TATGGGGATC", "switch fluorescence ratio": 0.98}, {"sequence": "TATGGTATG", "switch fluorescence ratio": 1}, {"sequence": "TATGTACTT", "switch fluorescence ratio": 1.04}, {"sequence": "TATGTAGTGG", "switch fluorescence ratio": 0.985}, {"sequence": "TATGTCAAAA", "switch fluorescence ratio": 0.996}, {"sequence": "TATGTCCAT", "switch fluorescence ratio": 0.985}, {"sequence": "TATGTGAACG", "switch fluorescence ratio": 1.01}, {"sequence": "TATGTGAGAT", "switch fluorescence ratio": 0.953}, {"sequence": "TATGTGCGTA", "switch fluorescence ratio": 1.01}, {"sequence": "TATGTGCTT", "switch fluorescence ratio": 1.01}, {"sequence": "TATGTGGTAC", "switch fluorescence ratio": 1.08}, {"sequence": "TATGTTTAGG", "switch fluorescence ratio": 0.988}, {"sequence": "TATGTTTCGA", "switch fluorescence ratio": 0.991}, {"sequence": "TATTAAACGC", "switch fluorescence ratio": 1}, {"sequence": "TATTAATAGC", "switch fluorescence ratio": 0.964}, {"sequence": "TATTACCACC", "switch fluorescence ratio": 1.27}, {"sequence": "TATTACGCTT", "switch fluorescence ratio": 1.04}, {"sequence": "TATTAGACGG", "switch fluorescence ratio": 1.01}, {"sequence": "TATTAGCAC", "switch fluorescence ratio": 1.03}, {"sequence": "TATTAGGACT", "switch fluorescence ratio": 1.01}, {"sequence": "TATTAGGTTC", "switch fluorescence ratio": 0.994}, {"sequence": "TATTATCG", "switch fluorescence ratio": 0.983}, {"sequence": "TATTCAAAGA", "switch fluorescence ratio": 0.992}, {"sequence": "TATTCAAAGG", "switch fluorescence ratio": 1.01}, {"sequence": "TATTCACGTC", "switch fluorescence ratio": 0.98}, {"sequence": "TATTCCCTCA", "switch fluorescence ratio": 0.993}, {"sequence": "TATTCCTAC", "switch fluorescence ratio": 1.43}, {"sequence": "TATTCCTATT", "switch fluorescence ratio": 0.994}, {"sequence": "TATTCCTCAG", "switch fluorescence ratio": 1.29}, {"sequence": "TATTCCTCG", "switch fluorescence ratio": 1.13}, {"sequence": "TATTCGCTCT", "switch fluorescence ratio": 1.01}, {"sequence": "TATTCGGAC", "switch fluorescence ratio": 1.06}, {"sequence": "TATTCTCGGG", "switch fluorescence ratio": 1}, {"sequence": "TATTCTTTGC", "switch fluorescence ratio": 1.01}, {"sequence": "TATTGCCGT", "switch fluorescence ratio": 1.05}, {"sequence": "TATTGCGAGG", "switch fluorescence ratio": 1.03}, {"sequence": "TATTGCGAGT", "switch fluorescence ratio": 0.978}, {"sequence": "TATTGCTTAG", "switch fluorescence ratio": 0.988}, {"sequence": "TATTGGGAAC", "switch fluorescence ratio": 0.991}, {"sequence": "TATTGGTA", "switch fluorescence ratio": 0.953}, {"sequence": "TATTGTTTCC", "switch fluorescence ratio": 1.14}, {"sequence": "TATTTAATGC", "switch fluorescence ratio": 1.07}, {"sequence": "TATTTACGGC", "switch fluorescence ratio": 1.01}, {"sequence": "TATTTATCAT", "switch fluorescence ratio": 0.985}, {"sequence": "TATTTATGAA", "switch fluorescence ratio": 0.906}, {"sequence": "TATTTATTT", "switch fluorescence ratio": 1.06}, {"sequence": "TATTTCGTTA", "switch fluorescence ratio": 0.959}, {"sequence": "TATTTCTACT", "switch fluorescence ratio": 1.02}, {"sequence": "TATTTCTTAT", "switch fluorescence ratio": 1}]}]}
